Experimental data from patent US20060134248A1, “Hop acids as a replacement for antibiotics in animal feed” (priority 2002, published 2006).

Tests used:
Conditions in all cases: hop acids 2 ppm, monensin 6 ppm
[1] = tested on: rumenal fluid containing a bacterial mixture commonly found in cattle; assay: In vitro fermentation of corn in artificial rumen (gas production, substrate disappearance, end products)
[2] = tested on: rumenal fluid containing a bacterial mixture commonly found in cattle; assay: In vitro fermentation of alfalfa in artificial rumen (gas production, substrate disappearance, end products)
[3] = tested on: rumenal fluid containing a bacterial mixture commonly found in cattle; assay: In vitro fermentation of barley in artificial rumen (gas production, substrate disappearance, end products)

`CC[C@@]1([C@@H]2O[C@@H]([C@H]3O[C@@](O)(CO)[C@H](C)C[C@@H]3C)C[C@@H]2C)CC[C@H]([C@]2(C)CC[C@]3(C[C@H](O)[C@@H](C)[C@@H]([C@@H](C)[C@@H](OC)[C@H](C)C(=O)O)O3)O2)O1` [monensin] was tested, and the “Disappearance, DM” value [1] was 91^a %, the “Disappearance, Starch” value [1] was 95^a % and the “End Products, Acetate” value [1] was 26^f mole %. For the same compound, the “End Products, Butyrate” value [1] was 35^a mole %, the “End Products, Propionate” value [1] was 20^e mole % and the “End Products, Valerate” value [1] was 17^b mole %. For the same compound, the “End Products, pH” value [1] was 5.0^c, the “Gas Production, Rate” value [1] was 8.9^b %/hr and the “Gas Production, Total” value [1] was 398^a mL/72 hr. The “Gas Production, mL/g fermented” value [1] was 233^ab mL/g fermented, the “Disappearance, DM” value [2] was 60^b % and the “Disappearance, NDF” value [2] was 32^bc %. For the same compound, the “End Products, Acetate” value [2] was 60^c mole %, the “End Products, Butyrate” value [2] was 6^c mole % and the “End Products, Propionate” value [2] was 31^c mole %. For the same compound, the “End Products, Valerate” value [2] was 2^a mole %, the “End Products, pH” value [2] was 5.8^f and the “Gas Production, Rate” value [2] was 9.2^a %/hr. The “Gas Production, Total” value [2] was 320^a mL/72 hr, the “Gas Production, mL/g fermented” value [2] was 263^ab mL/g fermented and the “Gas production (rate, total) versus control, in words” value [2] was “did not reduce”. For the same compound, the “Propionate versus control, in words” value [2] was “increased significantly”, the “Disappearance, DM” value [3] was 83^b % and the “Disappearance, Starch” value [3] was 99^a %. The “End Products, Acetate” value [3] was 32^d mole %, the “End Products, Butyrate” value [3] was 28^b mole % and the “End Products, Propionate” value [3] was 24^c mole %. For the same compound, the “End Products, Valerate” value [3] was 14^b mole %, the “End Products, pH” value [3] was 5.0^c and the “Gas Production, Rate” value [3] was 9.1^b %/hr. The “Gas Production, Total” value [3] was 336^a mL/72 hr and the “Gas Production, mL/g fermented” value [3] was 212^bc mL/g fermented.

Marks after values point to notes of the source that are not given here.
